# About 14,000 (4.5%) of roughly 310,000 compounds showed an effect of 50% or more. Effects have a minus sign here. This is one part of the list.
# Target: human ether-à-go-go-related gene (hERG) potassium channel (human, UniProt Q12809)
# Experiment: primary screen, population patch clamp on CHO cells stably expressing hERG
# 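Note: peak tail current of the secondary pulse compared with the same well before compound.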
# human ether-à-go-go-related gene (hERG) potassium channel, sequence (Q12809 whole entry, looked up): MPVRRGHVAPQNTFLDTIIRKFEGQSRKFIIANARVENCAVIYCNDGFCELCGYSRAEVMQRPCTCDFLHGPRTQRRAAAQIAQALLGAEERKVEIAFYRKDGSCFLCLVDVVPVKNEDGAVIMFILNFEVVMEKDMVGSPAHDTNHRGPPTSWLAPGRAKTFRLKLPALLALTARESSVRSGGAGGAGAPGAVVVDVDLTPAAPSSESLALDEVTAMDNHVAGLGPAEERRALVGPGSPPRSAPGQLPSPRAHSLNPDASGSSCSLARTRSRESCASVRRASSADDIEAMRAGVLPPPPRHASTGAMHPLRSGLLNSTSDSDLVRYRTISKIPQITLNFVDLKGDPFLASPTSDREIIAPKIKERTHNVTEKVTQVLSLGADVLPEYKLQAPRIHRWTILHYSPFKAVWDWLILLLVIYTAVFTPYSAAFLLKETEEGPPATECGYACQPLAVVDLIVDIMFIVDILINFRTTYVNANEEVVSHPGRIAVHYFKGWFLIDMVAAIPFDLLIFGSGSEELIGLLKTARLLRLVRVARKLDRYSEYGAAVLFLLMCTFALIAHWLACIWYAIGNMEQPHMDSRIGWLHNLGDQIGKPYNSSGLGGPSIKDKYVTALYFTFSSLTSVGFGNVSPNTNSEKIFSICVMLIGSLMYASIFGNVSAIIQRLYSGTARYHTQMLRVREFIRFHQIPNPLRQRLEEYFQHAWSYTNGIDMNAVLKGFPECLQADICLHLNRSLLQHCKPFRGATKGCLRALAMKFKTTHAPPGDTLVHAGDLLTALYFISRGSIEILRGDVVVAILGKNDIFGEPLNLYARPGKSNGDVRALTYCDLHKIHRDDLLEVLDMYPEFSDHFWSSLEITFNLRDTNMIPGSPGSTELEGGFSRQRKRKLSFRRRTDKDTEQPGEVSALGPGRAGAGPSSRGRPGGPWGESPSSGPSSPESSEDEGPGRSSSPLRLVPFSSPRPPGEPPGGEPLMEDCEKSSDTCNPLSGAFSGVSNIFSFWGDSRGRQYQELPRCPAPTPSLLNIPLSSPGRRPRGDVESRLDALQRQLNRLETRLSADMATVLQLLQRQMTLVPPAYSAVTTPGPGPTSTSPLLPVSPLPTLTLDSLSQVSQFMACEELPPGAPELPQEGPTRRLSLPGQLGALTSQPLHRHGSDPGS
row,SMILES,"hERG current change (%, negative = inhibition) at 10uM"
1,COCCNC(=S)N1CCCC(CO)C1 (centres unmarked),2.05%
2,COc1ccc(CCNC(=O)COc2ccc(-c3ccc(C#N)cc3)cc2)cc1,13.7%
3,Cc1cc(C(=O)NCc2cccc(Cl)c2)c2ccccc2n1,15.8%
4,c1csc(C2Nc3cccc4cccc(c34)N2)c1,-17.2%
5,O=C(CCCc1cccs1)NCCc1c[nH]c2ccccc12,6.58%
6,CCCCN(C)CCCNC(=O)CN1C(=O)CSc2ccc(S(=O)(=O)N3CCOCC3)cc21,10.3%
7,COc1ccccc1OCC(=O)OCC(=O)Nc1sccc1C(N)=O,19.1%
8,CCOC(=O)CSc1cc(C)nc(NC(C)=O)n1,-0.404%
9,COc1cc2c(cc1OC)C(Cc1ccc(O)cc1)N(C)CC2 (centres unmarked),0.573%
10,CN1CCCCc2c1nc1c(c2N)CCCC1,-4.15%
11,O=C(NNC(=O)C1CC2CCC1C2)c1ccccc1 (centres unmarked),7.7%
12,OCCC1CN(Cc2cccc3c2OCO3)CCN1C1CCCCC1 (centres unmarked),-9.67%
13,CN(C)c1ccnc2sc(C(=O)c3ccccc3)c(N)c12,-11.2%
14,C=CCN1C(=O)C(CCCC)NC1=S (centres unmarked),3.62%
15,CN(C)/C=C/C(=O)C(F)(F)F,-2.46%
16,O=S1(=O)CCOC[C@H](CC2CCCCC2)N1Cc1cccc(F)c1,14.5%
17,O=S(=O)(Nc1cccc(S(=O)(=O)N2CCOCC2)c1)c1ccc(Cl)s1,-1.76%
18,COc1ccccc1NC(=O)c1c(N=Cc2c(O)ccc3ccccc23)cnn1C,18.4%
19,COc1cc(OC)cc(C(=O)/C=C2\Sc3ccccc3N2C)c1,9.82%
20,O=C(Nc1ccc2c(c1)OCCO2)C1CCN(c2cnccn2)CC1,4.73%
21,CN(Cc1ccccc1)C(=O)Cn1nc(C(F)(F)F)c2c1CCC2,-2.3%
22,COc1cccc(NC(=O)Nc2ccc3nsnc3c2)c1,10.9%
23,COc1cc(-c2c(C#N)c(N)nc3c2c(C)nn3-c2ccc(C)c(C)c2)cc(OC)c1OC,13.3%

row,SMILES,"hERG current change (%, negative = inhibition) at 10uM"
1,COCCNC(=O)C(c1ccc(Cl)cc1)N(Cc1ccco1)C(=O)CCC(=O)Nc1ccccn1 (centres unmarked),-14.1%
2,O=C1C2C3C=CC(C3)C2C(=O)N1c1ccc2c(c1)OCO2 (centres unmarked),0.751%
3,Fc1ccc(C2NC(=S)NC3=C2N2CCC3CC2)cc1 (centres unmarked),-0.343%
4,Cc1c(C(=O)NCc2cccs2)oc2ccc(S(=O)(=O)N3CCOCC3)cc12,-1.95%
5,O=C(O)Cc1ccc(C(=O)c2ccc(Cl)cc2Cl)s1,-4.52%
6,CCOC(=O)/C(C#N)=C1/SC(C)C(=O)N1c1ccc(Br)cc1 (centres unmarked),-13.8%
7,COc1ccc(OC)c(C(=O)CC2OC(=O)c3ccccc32)c1 (centres unmarked),2.88%
8,COc1ccc(/C(N)=N/OC(=O)/C=C/c2ccccc2)cc1,-37.2%
9,CCOC(=O)c1ccc(Oc2nc(NC)nc(SC)n2)cc1,-1.71%
10,COCCn1c(COc2ccc(C)cc2)nc2ccccc21,-11.9%
11,NC(=O)CCn1c(C(=O)c2cc(Cl)c(N)c(Cl)c2)c2ccccc2[n+]1[O-],17.9%
12,Cc1c(C)n(C)c2ccc([N+](=O)[O-])cc12,-4.04%
13,CC1CN(Cc2c(O)ccc3c2oc(=O)c2ccccc23)CC(C)O1 (centres unmarked),1.4%
14,COc1ccc(C(CNC(=O)c2ccc(S(=O)(=O)Nc3ccc(F)cc3)cc2)N(C)C)cc1 (centres unmarked),-8.57%
15,COc1ccc(-c2nc(N)c(C#N)c(-c3cccnc3)c2C)cc1,-12.4%
16,C/C(=N\OCC(=O)Nc1cc(C)cc(C)c1)c1ccc2c(c1)OCCO2,-13%
17,COc1ccc(Nc2ccnc(Nc3ccc(OC)cc3)n2)cc1,-1.05%
18,CCOC(=O)c1csc(NC(=O)CN2CCN(C)CC2)n1,19%
19,COc1cccc(NC(=O)N2CCN(S(C)(=O)=O)CC2)c1,4.99%
20,CC(=O)c1ccc(NC(=O)CCc2nnc3ccc(NCc4ccco4)nn23)cc1,9.4%
21,CCOC(=O)c1cc(NC(=O)N2CCCCC2)c(C)nc1C,16.6%
22,Cc1cc(N2CCCC2)nc(N2C3CCC2CC(O)(c2ccc(F)cc2)C3)n1 (centres unmarked),-48.3%
23,c1csc(CSc2nnc3sc4ccccc4n23)c1,-22.6%

row,SMILES,"hERG current change (%, negative = inhibition) at 10uM"
1,O=C(CCc1nc2ccccc2s1)N1CCN(S(=O)(=O)c2cccs2)CC1,-66.7%
2,COc1ccccc1NS(=O)(=O)c1ccc2oc(SC)nc2c1,2.84%
3,CC(C)(C)OC(=O)N1CC(O)CC1C(=O)OCC(=O)c1ccc(Cl)cc1 (centres unmarked),-16.4%
4,O=C(C1CCCCC1)N(Cc1nc2sc3c(c2c(=O)[nH]1)CCCC3)Cc1cccs1,9.51%
5,O=C(COC(=O)c1ccc(Cl)nc1)Nc1cc(S(=O)(=O)N2CCCCC2)ccc1Cl,-19.4%
6,CCCCc1c(O)nc(SCC(=O)N2CCCCC2)[nH]c1=O,17.1%
7,Cc1cc(C(F)(F)F)c2c(n1)sc1c(O)cc(=O)[nH]c12,3.66%
8,O=c1[nH]c(CCl)nc2cc(-c3ccc(Cl)cc3)sc12,13%
9,O=C(CS(=O)c1ccc(F)cc1)N1CCOCC1 (centres unmarked),4.47%
10,CNS(=O)(=O)c1cccc2nsnc12,7.34%
11,COc1ccc2oc(-c3ccccc3)c(C(=O)N(C)C)c2c1,-15.7%
12,CCCN(CCC)C1CC(=O)N(Cc2ccccc2)C1=O (centres unmarked),9.19%
13,N#Cc1cccc(NC(=O)CN2CCN(Cc3ccccc3)CC2)c1,-65.1%
14,CCC(=O)N1CCc2cc(Br)cc(S(=O)(=O)CCC(=O)NCC3CCCO3)c21 (centres unmarked),19.2%
15,Cc1nnsc1C(=O)N1CCCC(N2CCN(c3cccc(C(F)(F)F)c3)CC2)C1 (centres unmarked),-26.8%
16,Cc1ccc2nc(SCC(=O)NCc3ccco3)c(C#N)cc2c1,9.44%
17,CC1(C)Cc2cccc(OCC(=O)NCCc3ccc(S(N)(=O)=O)cc3)c2O1,-7.34%
18,CCOc1ccc(CNC(=O)c2cccc(NC(=O)C3=C(C)OCCS3)c2)cc1,-12.8%
19,CCCC(C)NC(=O)CN(Cc1ccco1)S(=O)(=O)c1ccccc1 (centres unmarked),2.25%
20,Cc1cc(C)nc(Nc2n[nH]c(COc3ccc(Cl)cc3)n2)n1,-8.24%
21,CCC1(C)C(Nc2c(C)cccc2C)=NC(=S)N1c1ccc(NC(C)=O)cc1 (centres unmarked),6.3%
22,O=C(Nc1ncc(Cc2ccccc2)s1)C1COc2ccccc2O1 (centres unmarked),-0.581%
23,COc1ccc(CNc2nnnn2C)cc1,20.9%

row,SMILES,"hERG current change (%, negative = inhibition) at 10uM"
1,CC(C)(C)c1ccc(C(=O)OCCN2CCCCC2)cc1.Cl,-47.6%
2,COC(=O)C1=C(C(=O)OC)C2(OC1c1ccc(Br)cc1)C(=O)c1ccccc1C2=O (centres unmarked),17%
3,CCOC(=O)c1ccc(NC(=O)CC2S/C(=N/N=C/c3c[nH]c4ccccc34)NC2=O)cc1 (centres unmarked),-5.73%
4,Cc1ccc(-c2nsc(SCC(=O)NCc3ccc4c(c3)OCO4)n2)cc1,6.1%
5,CC1(C)Cc2c(C#N)c(SCc3ccccc3)nc(N3CCOCC3)c2CO1,-23.1%
6,Cc1cccc(NC(=O)C2CCN(c3nccc(C)n3)CC2)c1,11.7%
7,Cc1ccc(S(=O)(=O)N2CCN(S(C)(=O)=O)C2C)cc1 (centres unmarked),-5.44%
8,Cc1nc2nc(C)c(NS(=O)(=O)c3ccc(CC(C)C)cc3)c(=O)n2[nH]1,27.5%
9,NS(=O)(=O)c1ccc(CCNC(=O)c2ccc(Cl)nc2)cc1,20.6%
10,CN(C)C(CNc1ccc(S(C)(=O)=O)cc1[N+](=O)[O-])c1ccccc1 (centres unmarked),-12.6%
11,COC(=O)c1c(C)[nH]c(C(=O)CN2CCOCC2)c1C,17.8%
12,O=C(CN(C1CCCCC1)S(=O)(=O)c1ccc(F)cc1)Nc1ccc2c(c1)OCO2,-25.1%
13,COc1ccccc1N1CCN(C(=O)Cc2ccc(Cl)cc2)CC1,-1.77%
14,Cc1cc(C)c2[nH]c(=O)c(CN(CC3CCCO3)C(=S)NCc3ccco3)cc2c1 (centres unmarked),-4.81%
15,COc1ccc([C@@]2(O)c3c(ccc(CC=C(C)C)c3O)NC(=O)[C@@H]2OC)cc1,7.93%
16,Cc1c(Br)c(C(=O)NCc2cc3cc(Cl)ccc3[nH]2)nn1C,2.19%
17,CCc1ccc(CNC(=O)C2CC(=O)N(C3CCCC3)C2)cc1 (centres unmarked),16.7%
18,CC(C)C(NC(=O)/C(=C/c1ccco1)NC(=O)c1ccc(Br)o1)C(=O)O (centres unmarked),12.3%
19,O=C(c1n[nH]c2ccccc12)N1CCCCC1,10.8%
20,O=C(Nc1cccc2nsnc12)c1ccc(-c2ccc(Br)cc2)o1,-0.757%
21,Cc1cc(NC(=O)COc2cccc(Oc3ccccc3)c2)no1,13.5%
22,Cc1cc(NC(=O)CSc2nnc(NCc3ccco3)s2)no1,13.2%
23,CCOC(=O)/C(=N\Nc1ccccc1Cl)N1CCN(C)CC1,-22.6%

# Reference: PMC4336329 (PLoS ONE, 2015)
